Data from PubChem BioAssay AID1645887 (National Center for Advancing Translational Sciences (NCATS), 2021).
Where “and” joins values, the source holds several entries; their conditions need not be identical. Identical values can stand only once. Screen size: about 16,000 compounds; about 40 (0.2%) were called active. Not shown: some 1% with an inconclusive outcome. Calls follow the shape of the dose curve; as a rule, active = well fitted activation curve with a large enough effect; inconclusive = small, poorly fitted or top-dose-only effect, or another doubt; inactive = no such curve, though single readings can be large or run the other way. The list shows a part of the results.

These molecules were tested against Rap guanine nucleotide exchange factor 4 (Homo sapiens) (UniProt Q8WZA2) (assay: Validation qHTS for agonist of cAMP-regulated guanine nucleotide exchange factor 4 (EPAC2)). Conditions: EPAC2 Rap1B BODIPY-GDP exchange, fluorescence; activation: active compounds read high.
Method in brief: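 Fluorescent exchange assay: 100 nM EPAC2 with 250 nM RAP1B-BODIPY-GDP and 50 uM GDP; compound added, 5 min at room temperature, then read (ex 480/em 540 nm) every 5 min for 30 min. Normalized to 6.5 mM cAMP agonist control.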
% is scaled to controls: 0 for no effect and ±100 for the full control effect.
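Also: exchange makes BODIPY-GDP fluorescence drop when released from Rap1B; series mostly up to about 150 µM.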

UniProt Q8WZA2, sequence (Q8WZA2 whole entry, looked up): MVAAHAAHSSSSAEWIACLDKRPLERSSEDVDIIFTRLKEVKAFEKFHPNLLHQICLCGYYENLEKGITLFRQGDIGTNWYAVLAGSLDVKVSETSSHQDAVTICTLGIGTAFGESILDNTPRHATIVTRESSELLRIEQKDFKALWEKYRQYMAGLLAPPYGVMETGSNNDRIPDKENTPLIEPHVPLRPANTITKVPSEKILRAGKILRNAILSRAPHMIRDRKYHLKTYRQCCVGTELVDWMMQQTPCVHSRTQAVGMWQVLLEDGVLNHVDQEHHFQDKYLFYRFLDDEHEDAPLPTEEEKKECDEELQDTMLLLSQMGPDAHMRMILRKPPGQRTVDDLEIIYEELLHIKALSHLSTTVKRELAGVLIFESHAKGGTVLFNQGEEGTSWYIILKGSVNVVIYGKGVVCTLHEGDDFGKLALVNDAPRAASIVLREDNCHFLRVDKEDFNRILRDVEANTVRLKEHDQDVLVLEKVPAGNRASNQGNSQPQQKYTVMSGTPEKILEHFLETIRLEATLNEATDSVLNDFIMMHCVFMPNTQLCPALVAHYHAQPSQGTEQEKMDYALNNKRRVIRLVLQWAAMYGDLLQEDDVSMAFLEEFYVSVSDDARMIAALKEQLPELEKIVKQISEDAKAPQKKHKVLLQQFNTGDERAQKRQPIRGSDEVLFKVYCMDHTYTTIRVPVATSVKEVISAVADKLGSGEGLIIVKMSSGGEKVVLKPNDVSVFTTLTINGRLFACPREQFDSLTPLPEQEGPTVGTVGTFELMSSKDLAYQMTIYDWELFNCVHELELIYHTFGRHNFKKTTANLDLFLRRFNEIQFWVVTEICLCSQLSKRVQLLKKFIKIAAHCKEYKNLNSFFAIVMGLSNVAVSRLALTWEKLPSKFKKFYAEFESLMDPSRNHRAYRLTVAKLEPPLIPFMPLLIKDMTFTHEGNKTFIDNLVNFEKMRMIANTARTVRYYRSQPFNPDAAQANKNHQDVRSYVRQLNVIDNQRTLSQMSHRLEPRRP

activation, inactive:
CC(=O)N1CCC2(CC1)CCN(c1ncccn1)CC2 -1.55%
C=C1CC2C3CCC4=CC(=O)C=C[C@]4(C)[C@@]3(F)[C@@H](O)C[C@]2(C)[C@@]1(O)C(=O)COC(C)=O (some centres not stated) -5.09%
COC(=O)[C@H]1C(OC)[C@@H](OC(=O)c2cc(OC)c(OC)c(OC)c2)C[C@@H]2CN3CCc4c([nH]c5cc(OC)ccc45)[C@H]3C[C@H]21 (some centres not stated) 4.12%
O=c1c(-c2ccc(F)cc2)nc2cnc(Nc3ccccc3)nc2n1Cc1cccs1 4.73%
Cc1cccc(CNc2ncnc3ccc(-c4c(C)noc4C)cc23)c1 -1.15%
CCC1CN(Cc2ccc(COC)o2)Cc2cc(OC)ccc2O1 (configuration not stated) -4.26%
COc1cccc(Cn2c(=O)c(-c3cc(F)cc(F)c3)nc3cnc(OC)nc32)c1 1.52%
CN(C)CCC(c1ccc(Cl)cc1)c1ccccn1 (configuration not stated) -4.9%
COc1cc(N)c(Cl)cc1C(=O)NC1CCN(CCCOc2ccc(F)cc2)CC1OC (configuration not stated) -18.4%
C[C@H](O)C(=O)C1=Nc2c(nc(N)[nH]c2=O)NC1 21.3%
C[C@H]1C[C@H]2[C@@H]3CCC4=CC(=O)C=C[C@]4(C)[C@@]3(F)[C@@H](O)C[C@]2(C)[C@@]1(O)C(=O)CCl -13.5%
COc1ccc2cc1Oc1ccc(cc1)C[C@H]1c3c(cc4c(c3Oc3cc5c(cc3OC)CCN(C)[C@@H]5C2)OCO4)CCN1C -6.67%
COc1cc(C(O)C(=O)O)ccc1O (configuration not stated) 7.62% and -17.2%
COCCNc1ncncc1-c1c(C)noc1C -2.64%
Cc1ccc(C(=O)N(Cc2cc3cc4c(cc3nc2N2CCOCC2)CCC4)CC2CCCO2)cc1 (configuration not stated) -6.83%
O=C(O)c1ccccc1Nc1cccc(OCc2ccc3ccccc3n2)c1 7.41% and -13%
CC(=O)c1ccc(C(=O)NCc2nc(-c3ccccc3NC(=O)c3cc(C)oc3C)oc2C)cc1 -4.73%
CC(=O)NCCc1c(Cc2ccccc2)[nH]c2ccccc12 -17.5% and 2.98%
CN(C)CC/C=C1/c2ccccc2COc2ccccc21 -4.6%
c1cncc(-c2ccc3ncnc(NCCN4CCOCC4)c3c2)c1 -14.5%
COc1ncc2nc(-c3ccccc3)c(=O)n(-c3ccccc3)c2n1 -16.7%
O=C(c1cccc(F)c1)N1CCC2(CC1)CN(c1ccc(-c3ccccc3)cc1)C2 -11.2%
COc1ccc(C2OC3C(CO)OC(n4cnc5c(=O)[nH]c(N)nc54)C3O2)cc1 (configuration not stated) -2.86%
O=C(COCCOCCOCC(=O)Nc1c(I)cc(I)c(C(=O)O)c1I)Nc1c(I)cc(I)c(C(=O)O)c1I -3.4%
O=C(N[C@H]1CCC(=O)N([C@H](CSc2ccc(Br)cc2)Cc2ccccc2)CC1)OCc1ccccc1 -3.76%
C=CCOc1cc(Cl)ccc1C(=O)NCCN(CC)CC -8.15%
CN1CCC(N(Cc2cccs2)c2ccccc2)CC1 -2.84%
COC1=C(OC)C(=O)C(C/C=C(\C)CC/C=C(\C)CC/C=C(\C)CC/C=C(\C)CC/C=C(\C)CC/C=C(\C)CC/C=C(\C)CC/C=C(\C)CC/C=C(\C)CCC=C(C)C)=C(C)C1=O -0.172%
COC(=O)c1cc(CNC(=O)c2ccc(N(C)C)cc2)cc(NC(=O)c2ccccc2Cl)c1 -9.56%
O=C(CSc1ccncc1)NCC1Cc2cccc(-c3cncnc3)c2O1 (configuration not stated) 8.54%
COc1ccc(O)c(CN2CCC3(CC2)c2ccccc2[C@@H](NC(=O)c2cccc(F)c2)[C@@H]3OC)c1 6.2%
Cn1c(=O)c2[nH]c(Br)nc2n(C)c1=O -27.1%
NC(=O)[C@@H]1CCCN1C(=O)[C@H](Cc1cnc[nH]1)NC(=O)[C@@H]1CCC(=O)N1 -38.4%
CCCCC[C@H](O)/C=C/[C@@H]1[C@H]2C/C(=C/CCCC(=O)O)O[C@H]2C[C@H]1O -14.7%
CC(=O)OC1CC2C(C)(C)C(O)C=C[C@@]2(C)C2CC[C@@]3(C)C(c4ccoc4)OC(=O)C4OC43[C@]12C (some centres not stated) -7.82%
O=C(c1ccncc1)N1CCC[C@@]2(CCN(C(c3ccccc3)c3ccccc3)C2)C1 -1.1%
O=C(C[n+]1ccccc1Cl)c1ccc(F)cc1 -11%
COc1ccc(-n2ccc(-c3sc(NCc4cc(OC)c5c(c4)OCO5)nc3C)n2)cc1 -13.3%
Cc1ccccc1C1(CC(=O)N2CC3CC4CC(C3)CC2C4)CC(=O)N(Cc2cccnc2)C1=O (configuration not stated) 5.19%
COc1ccccc1CNc1ccnc(-c2ccc(N(C)C)cc2)n1 -2.97%
COc1ccc(CC(=O)c2ccc(O)cc2O)cc1 -11.3%
COc1cccc(-c2nc(NC3CC3)c3ccccc3n2)c1 3.34%
O=C(NCC1Cc2cc(F)cc(-c3cccnc3)c2O1)c1cnn(-c2ccccc2)c1 (configuration not stated) -18.5%
CCC(O)CNC(=O)c1cnn(-c2ncc3c(n2)-c2ccc(OC)cc2CC3)c1C1CC1 (configuration not stated) 3.71%
COCc1c(C(=O)N2CCN(C(C)C)CC2)cnn1-c1nccc(-c2cc(C)sc2C)n1 2.49%
C=C1CCC2C(C)(CO)C(O)CCC2(C)C1C/C=C1\C(=O)OCC1O (configuration not stated) 1.28%
COc1cc(=O)n2c(c1C(=O)NC(C)c1ccco1)CCN(C(=O)c1cccc(C)c1C)CC2 (configuration not stated) -10.2%
CCOC(=O)c1ccc(O)cc1 1.32%
COc1cccc(CNC(=O)c2c(OC)cc(=O)n3c2CCN(C(=O)c2ccc(Cl)cc2)CC3)c1 -0.819%
COc1cccc(Cn2c(=O)c(-c3cn(C)c4ccccc34)nc3cnc(N4CCNCC4)nc32)c1 16.5%
CC(=O)O[C@H]1Cc2ccccc2N(C(N)=O)c2ccccc21 -16.5%
Nn1cc(Br)c(=O)[nH]c1=O 12%
O=C(O)C(=O)Nc1cccc(C2=NN=N[N]2)c1 -9.17%
COc1cccc(Cn2c(=O)cnc3cnc(Oc4ccccc4)nc32)c1 3.16%
CCNc1ncc2nc(-c3cn(C)c4ccccc34)c(=O)n(Cc3cccs3)c2n1 -1.05%
O=C(c1cnn(-c2nccc(-c3ccccc3C(F)(F)F)n2)c1C1CC1)N1CCN(CCO)CC1 -14.1%
COc1ccc(CCNC(=O)c2cnn(-c3nccc(-c4ccco4)n3)c2C)cc1 -3.09%
CCN1CCN(c2cc(-c3ccc(F)cc3)c3c(n2)CCCCCC3)CC1 6.49%
CCNc1ncc2nc(CCc3ccccc3)c(=O)n(CCOC)c2n1 -7.67%
Cc1ncc2c(c1CNC(=O)c1ccc3c(c1)OCO3)CCN(C(=O)c1noc3c1CCCC3)C2 -0.55%
[N-]=[N+]=Nc1ccc(C(=O)CSC[C@H](NC(=O)CC[C@H](N)C(=O)O)C(=O)NCC(=O)O)cc1 -68.8%
CN(C)Cc1ccccc1-c1cc(NC2CC2)ncn1 1.42%
O=S(=O)(c1ccccc1)N1CCC[C@@]2(CCN(c3cccc(-c4ccccc4)c3)C2)C1 -2.01%
O=C(c1csnn1)N1CCC[C@@]2(CCN(C(c3ccccc3)c3ccccc3)C2)C1 -4.01%
O=C(c1cccnc1)C1CCCN(Cc2ccc3c(c2)CN(C(=O)c2cn4ccccc4n2)CCO3)C1 (configuration not stated) -31.2%
CN1C[C@H](C(=O)N[C@]2(C)O[C@@]3(O)[C@H]4CCCN4C(=O)[C@H](Cc4ccccc4)N3C2=O)C[C@H]2c3cccc4[nH]cc(c34)C[C@@H]21 1.66%
O=C(/C=C/c1ccccc1)c1ccc(O)cc1O -25.8%
Cc1nc2cnc(Oc3cccc(Cl)c3)nc2n(C2CC2)c1=O -2.27%
CN1CC(=O)N2C(Cc3c([nH]c4ccccc34)[C@H]2c2ccc3c(c2)OCO3)C1=O (some centres not stated) -21%
COC(=O)C[C@H]1c2cc(F)ccc2S(=O)(=O)N1C1CC1 -27.2%
O=C1c2ccccc2C(Cc2ccncc2)(Cc2ccncc2)c2ccccc21 -2.78%
CN1CCCC(CN(C)C(=O)c2cnn(-c3nccc(-c4ccccc4C(F)(F)F)n3)c2C2CC2)C1 (configuration not stated) 0.0463%
O=C1CCc2c(ccc3ccccc23)O1 -34.9% and 2.88%
COc1ccccc1C1CN(CCNC(=O)C2=CCCC2)Cc2ccccc2O1 (configuration not stated) -18.2%
Cn1c(=O)c2c(ncn2C)n(C)c1=O -2.53% [middle of 4 runs]
Cc1cnc(C)c(-c2ccc(F)c3c2OC(CNC(=O)Cc2c(C)[nH]c4ccccc24)C3)n1 (configuration not stated) -19.4%
CN(C)C(=O)c1ccc(-c2cncnc2NCc2ccccc2)cc1 -9.06%
COc1ccccc1N1CCN(c2nc(CNC(=O)C3CC34CCCC4)nc3ccccc23)CC1 (configuration not stated) -20.5%
COc1cc(/C(=C/c2ccccc2)c2ccccc2)c2c(c1)oc1ccccc12 -7.45%
COc1ccc(N2C(=O)[C@@H]3C[C@H]2CN3Cc2cccn2-c2ccc(Cl)cn2)c(C)c1 -26.1%
CCCCCCCC/C=C\CCCCCCCC(=O)O -11.3%
N#Cc1cccc(-c2ccc3ncnc(NC4CCNCC4)c3c2)c1 -5.27%
